Target: T1, PID-130 (trispecific Her2/CD3/PD-1 MIAC; Blinatumomab_CD3 aglycosylated IgG1 with trastuzumab scFv at the …)
T1 construct: also called α-Her2/α-CD3/α-PD-1 MIAC; PID130 [Her2/CD3/PD-1]
Experiment: BLI (ForteBio Octet); PD-1 Fc on Protein A sensors, 100 nM construct; column 'Affinity (nM)'
Description: Antigen binding of MIAC constructs were analyzed using ForteBio Octet. […] All antigens were reconstituted in PBS at the final concentration of 0.25 ug/ul. […] Association proceeded by dipping sensors in 100 nM MIAC constructs for 5 minutes and disassociation occurred in blank kinetics buffer for 5 minutes. For CD3 epsilon binding, antigen was immobilized on Ni-NTA sensors; association was performed in 50 nM MIAC constructs. Binding data were analyzed using ForteBio Data Analysis 9.0 software.

B1: Recombinant human PD-1 Fc fusion protein (Sino Biological) (Fc fusion)
chain: not shown
notes: not shown: Fc part of a bought fusion protein
- Kd: 0.37 nM
